The source of these data is PubChem BioAssay AID1240 (Sanford-Burnham Center for Chemical Genomics, 2008).

The structures appear in SMILES notation. The whole screen tested about 50,000 compounds, of which about 800 (1.6%) showed an effect of 50% or more. This is one part of the list.

This experiment deals with Bcl-2-like protein 10 (Homo sapiens) (UniProt Q9HD36). Description: Phenotype converters, Bcl-B/TR3 peptide binding displacement, primary biochemical FP (AID 1240).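 Also: 0% = Bcl-B with tracer peptide and DMSO and 100% = tracer peptide lacking Bcl-B.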 As to conditions: GST-Bcl-B / FITC-TR3 peptide fluorescence polarization; stronger effect = higher value; compound at 3.75 mg/L.
UniProt Q9HD36, sequence (Q9HD36 whole entry, looked up): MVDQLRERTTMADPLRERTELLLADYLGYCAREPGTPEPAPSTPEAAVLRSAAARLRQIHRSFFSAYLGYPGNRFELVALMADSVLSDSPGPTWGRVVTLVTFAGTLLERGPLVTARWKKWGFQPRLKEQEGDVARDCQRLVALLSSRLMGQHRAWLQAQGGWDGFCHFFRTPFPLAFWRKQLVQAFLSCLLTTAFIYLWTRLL
Take `Cc1ccc(C(=O)N(Cc2ccccc2)Cc2ccccc2)cc1[N+](=O)[O-]`: the displacement came out at 10.5%.

Turning to `CC(=O)Nc1ccc(N2C(=O)c3cc4ccccc4cc3C2=O)cc1`, the displacement is -12.4%.

For the compound `CCOC(=O)Cn1nc(C(F)(F)F)c(Cl)c1C`, the displacement was 9.1%.

With `COc1ccccc1N1CCN(C(=O)c2ccc(N(Cc3ccccc3)S(C)(=O)=O)cc2)CC1`, the displacement was -0.6%.

As to `O=C(/C=C/c1cccs1)Nc1ncc(Cc2cccc(C(F)(F)F)c2)s1`, the displacement is -9.8%.

Turning to `COc1cc(NC(=O)C(F)(F)F)c(Cl)cc1NC(=O)c1ccccc1`, the displacement was 2.9%.

On to `C/C(=N\N=C1\NC(=O)C(CC(=O)Nc2ccc([N+](=O)[O-])cc2)S1)c1ccc(F)cc1` (stereo not given), for which the displacement worked out at 10.1%.

`O=C(O)CCCC(=O)OCc1ccco1`: the displacement is 31.3%.

On to `Cc1c(N/C(=N\S(=O)(=O)c2ccccc2)c2ccccc2)c(=O)n(-c2ccccc2)n1C`, for which the displacement was determined as 6.8%.

As to `CCOc1cc(/C=C(\C#N)c2nc3ccc(C)cc3[nH]2)cc(I)c1O`, the displacement is -95.2%.

On to `COc1cc(OC)c(/C=C2/C(C)=C(C#N)c3nc(N)c(C#N)c(C)c32)cc1Br`, for which the displacement came to 7.1%.

For the compound `Cc1cc2ncn(C(=O)c3ccc([N+](=O)[O-])cc3)c2cc1C`, the displacement came to 13.2%.

Take `COc1ccc(N)cc1-n1c(C)ccc1C`: the displacement was found to be 42.5%.

With `c1ccc(CN2CCC(N3CCN(C4CCCCCC4)CC3)CC2)cc1`, the displacement was -4.8%.

As to `O=C(COc1ccc2ccccc2c1)Nc1cc([N+](=O)[O-])ccc1F`, the displacement is 29.5%.

In the case of `Cc1oc(C(=O)O)cc1CSCc1oc(-c2ccccc2)cc1C(=O)O`, the displacement was -5.6%.

For `Cc1ccc(OCC(=O)N/N=C\c2cccnc2)cc1`, the displacement amounted to 5%.

For the compound `Cc1ccc(S(=O)(=O)/N=C(/Nc2cccc([N+](=O)[O-])c2)c2ccccc2)cc1`, the displacement worked out at 14.7%.

Take `COc1ccccc1-c1coc2c(CN(CC(C)C)CC(C)C)c(O)ccc2c1=O`: the displacement was -7.7%.

With `Cc1nc2sc3c(c2c2nncn12)CCCC3`, the displacement was 3.8%.

On to `CC(=C/C(=O)O)/C=C/c1c[nH]c2ccccc12`, for which the displacement is 3.2%.

For `C/C(=C\C(=O)ONC(=O)c1ccccc1)NC(C)C`, the displacement is -12.8%.

Take `NC(=O)c1c(NC(=O)C2C3C=CC(C3)C2C(=O)O)sc2c1CCCCC2` (stereo not given): the displacement was -6.8%.

Turning to `COc1ccc2c(c1)c(C(C)=O)c(C)n2C`, the displacement came out at 9.8%.

Regarding `COc1ccc(C2(CNC(=O)c3ccccc3)CCCC2)cc1OC`, the displacement was determined as 5.2%.

Turning to `CC(=O)C12CCCCC1CC1C3CC(C)[C@@]4(O)CC(O)CCC4(C)C3CCC12C` (stereo not given in full), the displacement came out at 0%.

Regarding `O=C(Nc1cccc(Cl)c1)Nc1ccc(Br)cn1`, the displacement was -1%.

Consider `Cc1ccc(S(=O)(=O)N2CCN(C/C=C/c3ccccc3)CC2)cc1[N+](=O)[O-]`, for which the displacement is -10%.

As for `COc1cc(OC)c(OC)cc1CN1CCN(Cc2cc(OC)c(O)c(OC)c2)CC1`, the displacement was -3.8%.

Turning to `Cc1ccc2[nH]c(O)c(N=NC(=O)COc3ccccc3)c2c1Br`, the displacement was 16.5%.

`NC1=NC(=O)/C(=C\c2ccc(S(=O)(=O)O)cc2)S1`: the displacement stood at 12.8%.

On to `Cc1ccc(C2C3=C(Nc4c2c(=O)[nH]c(=O)n4C)c2ccccc2C3=O)cc1` (stereo not given), for which the displacement is -2.2%.

Take `CC1(C)CC(C(CC(=O)O)Cc2ccccc2)CCO1` (stereo not given): the displacement is -4.6%.

As for `Cc1ccc(-n2nc3cc(C)c(NC(=O)c4ccc(Cl)cc4Cl)cc3n2)cc1`, the displacement is -6.9%.

Consider `O=C(CCc1ccccc1)Nc1ccc(Cl)c(C(F)(F)F)c1`, for which the displacement was -11.7%.

With `O=C(c1ccc(Cl)cc1)c1ccccc1C(=O)n1nnc2ccccc21`, the displacement was determined as 10.3%.

As to `Cc1ccc(C)c(N(CC(=O)NCc2ccc(Cl)cc2)S(=O)(=O)c2ccccc2)c1`, the displacement was -7.7%.

In the case of `CCOC(=O)N/N=C/c1ccccc1F`, the displacement was determined as 9.5%.

Consider `CCCc1c(C)[nH]c2c(OC)cccc2c1=O`, for which the displacement was 10.4%.

As for `COc1ccccc1CC1CC(=O)N(c2ccc(I)cc2)C1=O` (stereo not given), the displacement came out at 6.3%.

For `O=C(Nc1ccc(Br)cc1)NC(c1ccccc1)c1ccccc1`, the displacement is -14.3%.

Turning to `COC(=O)C1=CN(Cc2ccc(F)cc2)C=C(C(=O)OC)C1c1cc(OC)c(OC)c(OC)c1`, the displacement was 4.7%.

Consider `COc1cc(OC)c(C=Nc2ccccc2C(=O)Nc2ccccc2)cc1Br`, for which the displacement is -6%.

Turning to `CCN(CC)CCSc1nc(O)c(C(C)C)c(=O)n1-c1ccccc1`, the displacement worked out at 5.3%.

As to `O=C(CSCc1cccc(Br)c1)NCc1ccccc1`, the displacement is 2.2%.

`CCCCS(=O)(=O)CC(O)COc1ccc(Cl)cc1` (stereo not given): the displacement is -11.6%.

Take `Nc1cc(=O)[nH]c(SCc2ccccc2)n1`: the displacement amounted to 1%.

Take `COc1cc2c(cc1OC)C1(CCOCC1)CN(C)C2`: the displacement was -0.3%.

For `O=C(c1cc(F)c(F)cc1Cl)N1CCN(c2ccc([N+](=O)[O-])cc2Cl)CC1`, the displacement was found to be 14.1%.

For `COc1ccc(N(CC(=O)Nc2ccc(OC)c(OC)c2)S(C)(=O)=O)cc1`, the displacement was determined as 2.4%.

Take `CCOC(=O)C1=C(C)NC(=S)NC1c1ccc(C)cc1` (stereo not given): the displacement is -2.1%.

As to `CCOc1ccc(N(CC(=O)Nc2ccc(Cl)cc2C)S(C)(=O)=O)cc1`, the displacement was determined as 3.9%.

Take `COc1ccc(Cl)cc1C(=O)NC(c1ccccc1)c1ccccc1`: the displacement was -8.4%.

As for `COC(=O)c1ccc(NC(=O)C2COc3ccccc3O2)cc1` (stereo not given), the displacement is -10.2%.

With `O=C(Cc1ccccc1)N1N=C(c2ccc(Cl)cc2)CC1(O)C(F)(F)F` (stereo not given), the displacement is 3.5%.

On to `COc1cc([N+](=O)[O-])ccc1-c1ccc(/C=C2\C(=O)N(c3ccc(S(N)(=O)=O)cc3)N=C2C)o1`, for which the displacement came to 5.3%.

Take `CCN(CC)CCSc1nc(O)c(CC(C)C)c(=O)[nH]1`: the displacement worked out at 5.5%.

Turning to `O=[N+]([O-])c1ccc2c(c1)Cc1cc(N=Cc3ccccc3F)ccc1-2`, the displacement was -0.7%.

Consider `Cc1cc(C)cc(NC(=O)COc2ccc3ccccc3c2)c1`, for which the displacement is -21.3%.

For `COC(=O)C1=C(C)N(C)C(C)=C(C(=O)OC)C1c1ccc(Cl)cc1Cl`, the displacement is -3.4%.

On to `O=C1C(=O)N(Cc2ccc3c(c2)OCO3)c2ccccc21`, for which the displacement was 4%.

Turning to `Cc1ccc(NC(=O)Cn2cnc3c2c(=O)n(C)c(=O)n3C)nc1`, the displacement was 9.5%.

For `COC(=O)c1cc(C(=O)OC)cc(S(=O)(=O)O)c1`, the displacement amounted to 2.1%.

With `CCc1c(C)nc2ccc(C(=O)O)cc2c1Cl`, the displacement was -12%.

With `COc1cccc(OCCCN2CCOCC2)c1`, the displacement turned out to be 7.9%.

With `CCOc1ccc(/C=C2/SC(=O)N(CNc3ccc(Br)cc3)C2=O)cc1`, the displacement is 11.7%.

As to `CCOc1ccc(/C=C2\SC(=S)N(c3ccc(OC)cc3)C2=O)cc1OC`, the displacement was 114%.

As to `CCOC(=O)C1=C(C)N=c2s/c(=C\C=C\c3ccccc3)c(=O)n2C1c1cccc([N+](=O)[O-])c1` (stereo not given), the displacement stood at 2.6%.

`C=CCNC(=O)CN(c1ccc(OC)cc1)S(=O)(=O)c1ccccc1`: the displacement was determined as 15.4%.

For the compound `COc1ccc(/C=C2\C(=O)N(c3ccc(F)cc3)N=C2C)cc1`, the displacement was -10.4%.
